Laboratory results as given in the antibiotic and cytotoxicity screens of Wong et al. (2023).
Some of the results follow.

Key:
[1] = system: HSkMC (human skeletal muscle cells); assay: cytotoxicity call (relative viability < 0.9); details: 10 µM
[2] = system: HepG2; assay: cytotoxicity call (relative viability < 0.9); details: 10 µM
[3] = system: S. aureus RN4220; assay: growth inhibition call (relative growth <= 0.2); details: 50 µM

Compound | cytotoxicity call [1] | cytotoxicity call [2] | growth inhibition call [3]
C[C@@H]1CN([C@H](C)CO)C(=O)Cc2cc(NC(=O)c3ccncc3)ccc2O[C@H]1CN(C)Cc1ccncc1 | inactive | inactive | inactive
C[C@H]1CN([C@@H](C)CO)C(=O)c2cccc(NS(=O)(=O)c3cn(C)cn3)c2O[C@@H]1CN(C)C(=O)Nc1ccccc1 | inactive | inactive | inactive
COc1ccc(S(=O)(=O)N(C)C[C@@H]2Oc3ccc(N(C)C)cc3CC(=O)N([C@@H](C)CO)C[C@@H]2C)cc1 | inactive | inactive | inactive
C[C@H]1CCCCO[C@@H](CN(C)C(=O)Nc2ccccc2)[C@@H](C)CN([C@@H](C)CO)C(=O)c2cc(NS(=O)(=O)c3ccc(F)cc3)ccc2O1 | inactive | inactive | inactive
CCNC(=O)C[C@H]1CC[C@@H]2[C@@H](COc3ccc(NS(=O)(=O)c4ccccc4C)cc3C(=O)N2C)O1 | inactive | inactive | inactive
COCC#Cc1cnc2c(c1)C(=O)N([C@H](C)CO)C[C@@H](C)[C@@H](CN(C)C(=O)CCN1CCCCC1)O2 | inactive | inactive | inactive
Cc1noc(C)c1S(=O)(=O)Nc1ccc2c(c1)CC(=O)N([C@@H](C)CO)C[C@@H](C)[C@@H](CN(C)S(=O)(=O)c1ccccc1)O2 | inactive | inactive | inactive
CCCNC(=O)[C@@]1(c2ccc([N+](=O)[O-])cc2)CC(=O)N(CC23CC4CC(CC(C4)C2)C3)[C@@H]1c1ccc(CO)cc1I | inactive | inactive | inactive
COc1cccc(S(=O)(=O)N2C[C@@H](O)COC[C@H]3O[C@@H](CC(=O)N4CCN(C)CC4)CC[C@@H]32)c1 | inactive | inactive | inactive
C[C@H](CO)N1C[C@H](C)[C@@H](CN(C)Cc2ccccc2)OCCCC[C@H](C)Oc2ccc(NS(=O)(=O)c3ccccc3)cc2C1=O | inactive | inactive | inactive
C[C@H](CO)N1C[C@H](C)[C@@H](CN(C)C(=O)Nc2ccc(C(F)(F)F)cc2)Oc2ncc(C3=CCCC3)cc2C1=O | inactive | inactive | inactive
C[C@@H]1CN([C@@H](C)CO)C(=O)CCCn2cc(nn2)CO[C@@H]1CN(C)C(=O)C1CC1 | inactive | inactive | inactive
C[C@@H]1CN([C@H](C)CO)C(=O)c2cccc(NS(=O)(=O)c3ccc(F)cc3)c2O[C@H]1CN(C)Cc1ccc(Oc2ccccc2)cc1 | inactive | inactive | inactive
C[C@H]1CN([C@@H](C)CO)C(=O)c2cccc(NC(=O)Nc3ccc(C(F)(F)F)cc3)c2O[C@H]1CN(C)Cc1ccc(C(F)(F)F)cc1 | inactive | inactive | inactive
COc1ccc(S(=O)(=O)N(C)C[C@H]2OCCCC[C@H](C)Oc3ccc(NS(=O)(=O)c4ccc(Cl)cc4)cc3C(=O)N([C@H](C)CO)C[C@H]2C)cc1 | inactive | active | inactive
COc1ccc(S(=O)(=O)Nc2ccc3c(c2)CC(=O)N([C@@H](C)CO)C[C@H](C)[C@@H](CN(C)Cc2ccc(C(=O)O)cc2)O3)cc1 | inactive | inactive | inactive
CCS(=O)(=O)N1Cc2nccn2C[C@H](Cn2ncccc2=O)C1 | inactive | inactive | inactive
C[C@@H]1CN([C@@H](C)CO)C(=O)c2cc(NS(C)(=O)=O)ccc2O[C@H]1CN(C)S(=O)(=O)c1ccc(F)cc1 | inactive | inactive | inactive
C[C@H](CO)N1C[C@H](C)[C@H](CN(C)S(=O)(=O)c2cccs2)OCCCC[C@H](C)Oc2ccc(NC(=O)Nc3ccccc3)cc2C1=O | inactive | inactive | inactive
COC(=O)[C@@H](C)N(C#N)c1nc(C)nc(C)n1 | inactive | inactive | inactive
COc1ccc2[nH]c(=O)[nH]c(=O)c2c1 | inactive | active | active
COc1ccc(S(=O)(=O)Nc2ccc3c(c2)C(=O)N([C@H](C)CO)C[C@H](C)[C@H](CN(C)S(C)(=O)=O)O3)cc1 | inactive | inactive | inactive
C[C@@H]1CN([C@H](C)CO)C(=O)c2cccc(NC(=O)C3CCCCC3)c2O[C@@H]1CN(C)Cc1ccc(C(=O)Nc2ccccc2N)cc1 | inactive | inactive | inactive
O=c1[nH]c2cc(C(F)(F)F)c(N3CCOCC3)cc2n(CP(=O)(O)O)c1=O | inactive | inactive | inactive
O=C(C[C@@H]1CC[C@H]2[C@@H](COC[C@@H](O)CN2Cc2cccc(C(F)(F)F)c2)O1)NCCc1ccncc1 | inactive | inactive | inactive
C[C@H](CO)N1C[C@H](C)[C@H](CN(C)C(=O)NC2CCCCC2)Oc2ccc(NC(=O)CCN3CCOCC3)cc2CC1=O | inactive | inactive | inactive
CN(C)Cc1cn(CC[C@@H]2CC[C@@H](N)[C@H](CO)O2)nn1 | inactive | inactive | inactive
O=C(N/N=C/[C@H](O)[C@H](O)[C@@H](O)[C@@H](O)CO)c1ccccn1 | inactive | inactive | inactive

Compound | cytotoxicity call [1] | cytotoxicity call [2] | growth inhibition call [3]
CCCNC(=O)N(C)C[C@H]1Oc2cc(-c3ccccc3F)ccc2S(=O)(=O)N([C@@H](C)CO)C[C@H]1C | inactive | inactive | inactive
CN[C@@H]1[C@@H](C)O[C@@H](O[C@H]2[C@H](C)O[C@@H](O[C@@H]3/C(C)=C/C[C@@H]4C[C@@H](C[C@]5(C=C[C@H](C)[C@@H](C(C)C)O5)O4)OC(=O)[C@@H]4C=C(C)[C@@H](O)[C@H]5OC/C(=C\C=C\[C@@H]3C)[C@]54O)C[C@@H]2OC)C[C@H]1OC | active | active | active
CCCNC(=O)N(C)C[C@H]1Oc2cc(-c3ccc(C)cc3)ccc2S(=O)(=O)N([C@@H](C)CO)C[C@@H]1C | inactive | inactive | inactive
C[C@@H]1CCCCO[C@H](CN(C)S(=O)(=O)c2cccs2)[C@H](C)CN([C@H](C)CO)C(=O)c2cc(NC(=O)Nc3ccccc3)ccc2O1 | inactive | inactive | inactive
C[C@H](CO)N1C[C@H](C)[C@H](CN(C)S(=O)(=O)c2ccccc2)Oc2c(NS(C)(=O)=O)cccc2C1=O | inactive | inactive | inactive
Cc1ccccc1S(=O)(=O)N1C[C@H](O)COC[C@@H]2O[C@H](CC(=O)NCCc3ccncc3)CC[C@H]21 | inactive | inactive | inactive
O=C(C[C@H]1C[C@@H]2c3cc(NC(=O)NC4CCCC4)ccc3O[C@@H]2[C@H](CO)O1)NCc1ccc(Oc2ccccc2)cc1 | inactive | active | inactive
C[C@@H]1CN([C@@H](C)CO)C(=O)c2cc(NC(=O)CCC(F)(F)F)ccc2O[C@@H](C)CCCCO[C@@H]1CN(C)Cc1ccccc1 | inactive | inactive | inactive
C[C@@H]1CN([C@@H](C)CO)C(=O)c2cc(NC(=O)Cc3cn(C)c4ccccc34)ccc2O[C@@H]1CN(C)Cc1ccc(-c2ccccc2)cc1 | inactive | active | inactive
CCCNC(=O)N1C[C@@H]2[C@H](c3ccccc31)[C@@H](CO)N2C(=O)CN1CCOCC1 | inactive | inactive | inactive
CNC(=O)C[C@H]1CC[C@H]2[C@@H](COC[C@@H](O)CN2C(=O)c2ccccn2)O1 | inactive | inactive | inactive
C[C@@H]1CCCCO[C@@H](CN(C)CC2CCCCC2)[C@@H](C)CN([C@@H](C)CO)C(=O)c2cc(NS(=O)(=O)c3ccc(F)cc3)ccc2O1 | inactive | inactive | inactive
COCC(=O)NC1CCN(C2CCNCC2)CC1 | inactive | inactive | inactive
Cc1noc(C)c1NC(=O)Nc1ccc2c(c1)C(=O)N([C@H](C)CO)C[C@H](C)[C@@H](CN(C)CC1CCCCC1)OCCCC[C@@H](C)O2 | inactive | inactive | inactive
C[C@@H]1CN([C@H](C)CO)C(=O)c2cc(NC(=O)c3ccncc3)ccc2O[C@@H]1CN(C)Cc1ccc(C(=O)O)cc1 | inactive | inactive | inactive
O=C(N[C@H]1CC[C@@H](CC(=O)N2CCOCC2)O[C@@H]1CO)c1ccccn1 | inactive | inactive | inactive
C[C@@H]1CN([C@H](C)CO)C(=O)c2cccc(NS(C)(=O)=O)c2O[C@@H]1CN(C)S(=O)(=O)c1ccc(Cl)cc1 | inactive | inactive | inactive
O=C1C(Cl)=C2OC[C@@]2(O)C[C@@H]2CCCN12 | inactive | inactive | inactive
C[C@H]1CCCCO[C@@H](CN(C)CC2CCCCC2)[C@@H](C)CN([C@@H](C)CO)C(=O)c2cc(NC(=O)CCCN(C)C)ccc2O1 | inactive | active | inactive
O=C1OCC=C[C@H]2O[C@@]34C=CCN(Cn5nnc6ccccc65)C(=O)[C@H]3N(CCCCCCO)C(=O)[C@@H]4[C@@H]12 | inactive | inactive | inactive
NNC(=O)CCc1ccccc1 | inactive | inactive | inactive
C[C@H](CO)N1C[C@H](C)[C@@H](CN(C)C(=O)c2ccccc2)OCCCC[C@H](C)Oc2ccc(NC(=O)Nc3cccc4ccccc34)cc2C1=O | inactive | inactive | inactive
CC(C)CC#Cc1cnc2c(c1)C(=O)N([C@H](C)CO)C[C@@H](C)[C@H](CN(C)S(=O)(=O)c1ccccc1)O2 | inactive | inactive | inactive
COc1cc(CCC(=O)O)oc(=O)c1 | inactive | inactive | inactive
Cc1cc(C(=O)Nc2cccc3c2O[C@@H](CN(C)S(=O)(=O)c2cn(C)cn2)[C@H](C)CN([C@H](C)CO)C3=O)n(C)n1 | inactive | inactive | inactive
C[C@H](CO)N1C[C@H](C)[C@H](CN(C)Cc2ccc(-c3ccccc3)cc2)Oc2c(NC(=O)Nc3ccc4c(c3)OCO4)cccc2C1=O | inactive | inactive | inactive
COc1ccccc1S(=O)(=O)N[C@H]1C=C[C@@H](CC(=O)N2CCOCC2)O[C@H]1CO | inactive | inactive | inactive
